Changes are numbered by the printed parent chain; changes in the protein carry UniProt numbers. Some of the results follow.
T1: RBFOX1 RRM RbFoxmut (Fox-RRM*) (Homo sapiens, UniProt Q9NWB1 109-208, R118D;E147R;N151S;E152T)
T1 sequence: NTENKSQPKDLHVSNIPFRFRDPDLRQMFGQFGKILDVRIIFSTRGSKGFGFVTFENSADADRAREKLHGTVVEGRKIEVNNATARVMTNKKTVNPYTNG

B1: UGAAAGC (DNA:RNA)
RNA: GGGAGACCGGAAUUCAGAUUGUCCUGAAAGCUUAAAUCCCGUCGUAGCCACCA
DNA 1: CAATCTGAATTCCGGTCTCCC
DNA 2: TGGTGGCTACGACGGGATT
B2: AUACCAU (DNA:RNA)
RNA: B1 RNA with U25A, G26U, A28C, A29C, G30A, C31U
DNA 1: CAATCTGAATTCCGGTCTCCC
DNA 2: TGGTGGCTACGACGGGATT
B3: GUAUAGA (DNA:RNA)
RNA: B1 RNA with U25G, G26U, A28U, C31A
DNA 1: CAATCTGAATTCCGGTCTCCC
DNA 2: TGGTGGCTACGACGGGATT
B4: AUGGUCG (DNA:RNA)
RNA: GGGAGACCGGAAUUCAGAUUGUCCAUGGUCGUUAAAUCCCGUCGUAGCCACCA
DNA 1: CAATCTGAATTCCGGTCTCCC
DNA 2: TGGTGGCTACGACGGGATT
B5: UACGAUG (DNA:RNA)
RNA: B4 RNA with A25U, U26A, G27C, U29A, C30U
DNA 1: CAATCTGAATTCCGGTCTCCC
DNA 2: TGGTGGCTACGACGGGATT
B6: GCUUCAA (DNA:RNA)
RNA: GGGAGACCGGAAUUCAGAUUGUCCGCUUCAAUUAAAUCCCGUCGUAGCCACCA
DNA 1: CAATCTGAATTCCGGTCTCCC
DNA 2: TGGTGGCTACGACGGGATT
B7: AAGGGUA (DNA:RNA)
RNA: B4 RNA with U26A, U29G, C30U, G31A
DNA 1: CAATCTGAATTCCGGTCTCCC
DNA 2: TGGTGGCTACGACGGGATT
B8: AGUUUCG (DNA:RNA)
RNA: B4 RNA with U26G, G27U, G28U
DNA 1: CAATCTGAATTCCGGTCTCCC
DNA 2: TGGTGGCTACGACGGGATT
B9: GCAGUUU (DNA:RNA)
RNA: B4 RNA with A25G, U26C, G27A, C30U, G31U
DNA 1: CAATCTGAATTCCGGTCTCCC
DNA 2: TGGTGGCTACGACGGGATT
B10: CCAGUAU (DNA:RNA)
RNA: B4 RNA with A25C, U26C, G27A, C30A, G31U
DNA 1: CAATCTGAATTCCGGTCTCCC
DNA 2: TGGTGGCTACGACGGGATT
B11: AUACCCA (DNA:RNA)
RNA: B4 RNA with G27A, G28C, U29C, G31A
DNA 1: CAATCTGAATTCCGGTCTCCC
DNA 2: TGGTGGCTACGACGGGATT
B12: AAGGGUU (DNA:RNA)
RNA: B4 RNA with U26A, U29G, C30U, G31U
DNA 1: CAATCTGAATTCCGGTCTCCC
DNA 2: TGGTGGCTACGACGGGATT
B13: CUUAACC (DNA:RNA)
RNA: B1 RNA with U25C, G26U, A27U, G30C
DNA 1: CAATCTGAATTCCGGTCTCCC
DNA 2: TGGTGGCTACGACGGGATT
B14: CGUCGUC (DNA:RNA)
RNA: B1 RNA with U25C, A27U, A28C, A29G, G30U
DNA 1: CAATCTGAATTCCGGTCTCCC
DNA 2: TGGTGGCTACGACGGGATT
B15: CUAGCAG (DNA:RNA)
RNA: B4 RNA with A25C, G27A, U29C, C30A
DNA 1: CAATCTGAATTCCGGTCTCCC
DNA 2: TGGTGGCTACGACGGGATT
B16: CUAUUCA (DNA:RNA)
RNA: B4 RNA with A25C, G27A, G28U, G31A
DNA 1: CAATCTGAATTCCGGTCTCCC
DNA 2: TGGTGGCTACGACGGGATT
B17: GCACUCG (DNA:RNA)
RNA: B4 RNA with A25G, U26C, G27A, G28C
DNA 1: CAATCTGAATTCCGGTCTCCC
DNA 2: TGGTGGCTACGACGGGATT
B18: ACGAUUU (DNA:RNA)
RNA: B4 RNA with U26C, G28A, C30U, G31U
DNA 1: CAATCTGAATTCCGGTCTCCC
DNA 2: TGGTGGCTACGACGGGATT
B19: AAGACAU (DNA:RNA)
RNA: B4 RNA with U26A, G28A, U29C, C30A, G31U
DNA 1: CAATCTGAATTCCGGTCTCCC
DNA 2: TGGTGGCTACGACGGGATT
B20: UGCAUGA (DNA:RNA)
RNA: B1 RNA with A27C, A29U, C31A
DNA 1: CAATCTGAATTCCGGTCTCCC
DNA 2: TGGTGGCTACGACGGGATT

Target: T1, RBFOX1 RRM RbFoxmut (Fox-RRM*)
Assay: EMSA; HiTS-Eq, 1 nM pool, 10 min; buffer printed only for the single-RNA assays: 10 mM Tris pH 7.5, 150 mM NaCl, 3.4 mM EDTA, 0.001% NP-40, 30 C
Settings: tags: His6 N-terminal (pET28a); label: 5' 32P
In short: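 These values rest on relative association constants, computed from read-count changes of each RNA species versus the control reaction and normalised to the cognate motif. Reads came from free RNA recovered by 8% native PAGE after purified RbFox RRM (wild type or mutant) at increasing concentrations was equilibrated for 10 min in 50 µL with 1 nM of a 5′-radiolabelled pool with 7 randomized nucleotides and DNA-annealed flanks.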

Question: For B1, which binding signal is on record?
Answer: 0.0716 KA relative to UGCAUGU

Question: B2 was tested. Which binding signal did it give?
Answer: 0.092 KA relative to UGCAUGU

Question: B3 was tested. Which binding signal did it give?
Answer: 0.12 KA relative to UGCAUGU

Question: B4 was tested. Which binding signal did it give?
Answer: 0.213 KA relative to UGCAUGU

Question: For B5, which binding signal is on record?
Answer: 0.0695 KA relative to UGCAUGU

Question: How did the binding signal turn out when B6 was run?
Answer: 0.0916 KA relative to UGCAUGU

Question: With B7 as the binder, how does the binding signal read?
Answer: 0.15 KA relative to UGCAUGU

Question: Which binding signal does the source give for B8 here?
Answer: 0.139 KA relative to UGCAUGU

Question: Which binding signal does the source give for B9 here?
Answer: 0.0614 KA relative to UGCAUGU

Question: For B10, which binding signal is on record?
Answer: 0.108 KA relative to UGCAUGU

Question: B11 was tested. Which binding signal did it give?
Answer: 0.094 KA relative to UGCAUGU

Question: With B12 as the binder, how does the binding signal read?
Answer: 0.0918 KA relative to UGCAUGU

Question: Which binding signal does the source give for B13 here?
Answer: 0.0602 KA relative to UGCAUGU

Question: B14 was tested. Which binding signal did it give?
Answer: 0.186 KA relative to UGCAUGU

Question: With B15 as the binder, how does the binding signal read?
Answer: 0.0866 KA relative to UGCAUGU

Question: For B16, which binding signal is on record?
Answer: 0.0905 KA relative to UGCAUGU

Question: Which binding signal does the source give for B17 here?
Answer: 0.0787 KA relative to UGCAUGU

Question: For B18, which binding signal is on record?
Answer: 0.0913 KA relative to UGCAUGU

Question: How did the binding signal turn out when B19 was run?
Answer: 0.0714 KA relative to UGCAUGU

Question: Which binding signal does the source give for B20 here?
Answer: 0.692 KA relative to UGCAUGU

Reference: PMC9911399, “Two distinct binding modes provide the RNA-binding protein RbFox with extraordinary sequence specificity”
